# Data taken from PubChem BioAssay AID686971 (National Center for Advancing Translational Sciences (NCATS), 2013).
# In all, about 360,000 compounds went through this assay and about 7,500 (2.1%) were called active. Inconclusive means that the source gave no clear call. Such entries were picked first, then a sample of the others. Calls come from the whole dose curve; as a rule, active = well fitted cell-killing curve with a large enough effect; inconclusive = small, poorly fitted or top-dose-only effect, or effect the other way, or another doubt; inactive = no such curve, though single readings can be large or run the other way. Potencies of inconclusive entries are left out as doubtful fits.
# Experiment: qHTS for induction of synthetic lethality in tumor cells producing 2HG: qHTS for the HT-1080-IDH1KD cell line;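 for activity, negative = toxicity: 0% = DMSO wells and -100% = cell-free medium wells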
# Conditions: HT-1080 IDH1 knockdown viability, ATP luminescence, 48 h; activity, negative = toxicity: at 46.1 µM (top of the series) unless noted
# Method in brief: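 After a 2 h attachment period, IDH1KD HT-1080 cells took pin-transferred compound for 48 h at 37 °C; ATP-based luminescence after 10 min room-temperature reagent incubation reported viability.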
# Potency is the fitted concentration of half-maximal effect; tags give direction and shape of the fitted curve.
SMILES,Potency,"activity, negative = toxicity"
Cn1c(=O)[nH]c(=O)c2c1nc(Br)n2Cc1cccc(Br)c1,active: 4.61 µM,–
COc1ccc(C2=NN(C(=O)c3cccs3)C(c3ccccc3OC)C2)cc1OC (stereo unspecified),"inconclusive [cytotoxic, single point]",–
Cc1ccc(/C=N/NC(=O)c2ccc(-n3cnnn3)cc2)cc1,"inconclusive [cytotoxic, partial curve]",–
Cc1ccc(NS(=O)(=O)c2ccc(C(=O)N3CCCCCCC3)cc2)cc1,–,inactive: -21.5%
COc1cnn(-c2ccccc2)c(=O)c1SCc1ccc(Cl)c(Cl)c1,"inconclusive [cytotoxic, single point]",–
CC(=O)c1ccc(NC(=O)C2CCCN(S(=O)(=O)c3c(C)[nH]c(=O)[nH]c3=O)C2)cc1 (stereo unspecified),–,inactive: 0.147%
CCCCOCCCNC(=O)C[C@@H]1C[C@@]2(C(=O)OCC)CCCC=C2N(CCC2=CCCCC2)C1=O,"inconclusive [cytotoxic, single point]",–
CCn1c(SCC(=O)N(C)CC(=O)Nc2ccc(OC)cc2)nnc1-c1ccco1,–,inactive: -4.38%
Cc1ccccc1C1c2[nH]c3ccccc3c2CCN1Cc1cccn1-c1ncccn1 (stereo unspecified),–,inactive: -23.4%
Cc1cc(Cl)cc(Cl)c1OCCOc1cccc2cccnc12,"inconclusive [cytotoxic, single point]",–
CC1CCN(Cc2c(C(=O)N/N=C/c3cc(Cl)ccc3O)nnn2-c2nonc2N)CC1,active: 4.11 µM,–
COc1ccc(NC(=O)CSc2nnc(-c3ccccc3C)n2C)cc1,–,inactive: 0.416%
CCCCC(=O)OCc1c(-c2cccc(OC)c2)ncc2ccccc12,–,inactive: -0.676%
C=CC[n+]1c(-c2ccc(OC)c(OC)c2)csc1NNC(=O)Nc1ccccc1,active: 15.8 µM,–
CS(=O)(=O)N1CCc2ccccc2C1,–,inactive: 21.3%
O=C(CCl)N=c1sccn1Cc1ccccc1Cl,active: 0.092 µM,–
O=C(N/N=C/c1ccc(O)cc1)Nc1cccc2nsnc12,"inconclusive [cytotoxic, single point]",–
Clc1cccc(N=C2NN=C(c3ccc4c(c3)OCCO4)CS2)c1,active: 7.94 µM,–
COc1cccc(Cn2c(C(C)n3c(C)nc4ccccc43)nc3ccccc32)c1 (stereo unspecified),"inconclusive [cytotoxic, single point]",–
Cc1nc2ccccc2n1Cc1ccccc1,"inconclusive [cytotoxic, single point]",–
CCN(CC)c1ccc(NC(=O)c2ccc(=O)[nH]c2)cc1S(=O)(=O)Nc1ccccc1OC,"inconclusive [cytotoxic, full curve]",–
Cc1ccccc1NC(=O)COC(=O)CN1C(=O)NC(C)(C)C1=O,–,inactive: 14%
COc1ccc(-c2nc3ccc(Cl)cn3c2Cc2cccc(F)c2)cc1OC,"inconclusive [cytotoxic, single point]",–
c1ccc(C(=NNc2nc3ccccc3s2)c2ccccn2)cc1,"inconclusive [cytotoxic, full curve]",–

SMILES,Potency,"activity, negative = toxicity"
CCC(c1ccc(O)c(O)c1)C(CC)c1ccc(O)c(O)c1 (stereo unspecified),active: 20.6 µM,–
CC(C)c1ccc(C2C3=C(COC3=O)Nc3cc4c(cc32)OCO4)cc1 (stereo unspecified),active: 1.64 µM,–
CCOc1ccc(-c2nc(CSCC(=O)NC3CCN(Cc4ccccc4)CC3)c(C)o2)cc1,"inconclusive [cytotoxic, single point]",–
CCOc1ccc(N2C(=O)c3ccccc3NC2(C)CC)cc1 (stereo unspecified),"inconclusive [cytotoxic, single point]",–
CC1(C)CC2CC(C)(CN2C(=O)c2cc(-c3ccc(O)cc3)on2)C1 (stereo unspecified),"inconclusive [cytotoxic, single point]",–
CC(=O)NCCn1c(SCC(=O)NCCc2ccc(S(N)(=O)=O)cc2)nc2ccccc2c1=O,–,inactive: 23%
CNc1oc(-c2ccc(Cl)cc2)nc1P(=O)(c1ccccc1)c1ccccc1,"inconclusive [cytotoxic, single point]",–
Cc1nc2ccc(C(=O)Nc3cccc([N+](=O)[O-])c3)cc2s1,–,inactive: 9.42%
CC1(C(=O)NCc2cccc3ccccc23)CCN1Cc1ccc2ccccc2c1 (stereo unspecified),"inconclusive [cytotoxic, single point]",–
COc1ccc(C(=O)N/C(N)=N/c2nc3ccccc3o2)cc1,"inconclusive [cytotoxic, single point]",–
O=C(CN(Cc1ccco1)C(=O)c1ccccc1)Nc1ccc(Cl)c(Cl)c1,"inconclusive [cytotoxic, single point]",–
Cc1ccc(Cn2c(N)c(S(=O)(=O)c3cccs3)c3nc4ccccc4nc32)cc1,"inconclusive [cytotoxic, single point]",–
O=c1ccn(CCCBr)c(=O)[nH]1,–,inactive: 13.5%
CCOC(=O)c1c(C)[nH]c(C=O)c1Cc1cccc(Cl)c1,"inconclusive [cytotoxic, single point]",–
CC1COCC(C)N1C1=C(Cl)C(=O)c2ccccc2C1=O (stereo unspecified),active: 18.4 µM,–
COc1ccc(C(=O)N2CCc3ccc(NC(=O)c4ccccn4)cc3C2)cc1F,"inconclusive [cytotoxic, single point]",–
COc1ccc(Cc2nc(C(=O)Nc3ccc(F)cc3)cs2)cc1,"inconclusive [cytotoxic, single point]",–
Cc1noc(C)c1CSc1nc2ccccc2c(=O)n1-c1ccc(Cl)cc1,active: 7.08 µM,–
CCOc1cc(/C=C\c2[nH]c(=O)[nH]c(=O)c2[N+](=O)[O-])ccc1OC(C)CC (stereo unspecified),"inconclusive [cytotoxic, single point]",–
CC(NC(=O)c1ccc([N+](=O)[O-])o1)C12CC3CC(CC(C3)C1)C2 (stereo unspecified),"inconclusive [cytotoxic, single point]",–
COc1ccccc1Cc1c(-c2ccco2)nc2cc(C)c(Br)c(C)n12,"inconclusive [cytotoxic, single point]",–
O=C(c1ccc(F)cc1)N1CCN(c2cc(N3CCCCC3)c(F)cc2[N+](=O)[O-])CC1,"inconclusive [cytotoxic, single point]",–
Cc1ccc(-c2nnc(SCC(=O)N/N=C/c3c(C)nn(-c4ccccc4)c3C)n2-c2ccc(C)cc2)cc1,–,inactive: -26.4%
C#Cc1cccc(Nc2nc(NC(C)C)nc3ccsc23)c1,active: 20.6 µM,–

SMILES,Potency,"activity, negative = toxicity"
CC(/C=C/c1ccco1)=N/NC(=O)Cc1cccs1,–,inactive: 5.4%
COc1ccccc1C1CC(=O)Oc2c(C(C)C)ccc(C)c21 (stereo unspecified),–,inactive: 6.14%
COc1cc2c(C(=O)N3CCN(c4ccccc4)CC3)c(C)oc2cc1Br,"inconclusive [cytotoxic, single point]",–
O=C(/C=C/c1ccc(-c2ccccc2[N+](=O)[O-])o1)c1ccc(Br)cc1,"inconclusive [cytotoxic, single point]",–
COc1ccc(-n2c(C)cc(C(=O)Cn3nnc4ccccc4c3=O)c2C)cc1,"inconclusive [cytotoxic, single point]",–
O=C(Nc1cccc(C(F)(F)F)c1)N(Cc1ccc(Cl)cc1)CC(O)C(F)(F)F (stereo unspecified),active: 18.4 µM,–
CC(NC1=CC(=O)c2cccnc2C1=O)C(O)c1ccccc1 (stereo unspecified),active: 6.51 µM,–
CCc1c(-c2cccc(OC)c2)ncn1Cc1cccc(-c2ccccc2)c1,"inconclusive [cytotoxic, single point]",–
COc1ccc(Cl)cc1NC(=O)CN(C)C(=O)C12CC3CC(CC(Cl)(C3)C1)C2,"inconclusive [cytotoxic, single point]",–
CC(O)(c1ccc(F)c(F)c1)c1nc(/C=C/c2ccc(C(F)(F)F)cc2)cs1 (stereo unspecified),"inconclusive [cytotoxic, single point]",–
O=C(CCN1CCN(c2ccccc2)CC1)N/N=C/c1ccc([N+](=O)[O-])o1,"inconclusive [cytotoxic, partial curve]",–
CCCCNC(=O)C1C(c2ccc(C(F)(F)F)cc2)=Nc2ccccc2N1C(=O)c1ccc2nc(C)[nH]c2c1 (stereo unspecified),"inconclusive [cytotoxic, single point]",–
O=C(Nc1cccc(C(=O)N2CCCCC2)c1)c1ccc(Cl)cc1,–,inactive: -5.9%
COc1cc(C(=O)Nc2c(C)cc(C)cc2C)c([N+](=O)[O-])cc1OC,–,inactive: 11.2%
O[C@H]1C[C@H](c2ccc(Cl)cc2)N(Cc2cccs2)C[C@@H]1n1cc(C2CC2)nn1,"inconclusive [cytotoxic, single point]",–
C[C@H]1CN([C@@H](C)CO)C(=O)c2cc(/C=C/c3ccccc3)cnc2O[C@H]1CN(C)C(=O)c1cccc(F)c1,–,inactive: -5.98%
Cc1c2ccccc2cc(Cc2ccccc2)[n+]1C,active: 20.6 µM,–
Cc1cccc(N/N=C(\C(N)=O)C2=NC(C)(C)Cc3ccccc32)c1,"inconclusive [cytotoxic, partial curve]",–
CCOC(=O)C1=C(N)Oc2cc(O)ccc2C1c1ccc([N+](=O)[O-])cc1 (stereo unspecified),"inconclusive [cytotoxic, partial curve]",–
Cc1ccc(NC(=S)N(CCN2CCCCC2)Cc2ccco2)cc1Cl,–,inconclusive: -30.4% [cytotoxic]
CCc1cc(-c2nnn(CCC3COCCO3)c2CC)ccc1-c1cn(Cc2ccc3ccccc3c2)nn1 (stereo unspecified),"inconclusive [cytotoxic, single point]",–
Cc1nnc(N2CCCC(C(=O)NCc3ccc(OC(C)C)cc3)C2)c2nn(-c3ccccc3)c(C)c12 (stereo unspecified),"inconclusive [cytotoxic, single point]",–
CCN(C[C@H]1N[C@@](CC)(C(=O)OC)[C@H]2C(=O)N(Cc3ccccc3)C(=O)[C@@H]12)C(=O)Nc1ccc(C)cc1,–,inactive: -6.41%
